According to PubChem BioAssay AID686979 (National Center for Advancing Translational Sciences (NCATS), 2013):
Values joined by “and” are separate entries in the source; they are usually repeats but may differ in a detail not shown here. Equal entries are not always repeated. Out of some 420,000 compounds screened, about 50,000 (12%) were called active. Inconclusive means that the source gave no clear call. Such entries were picked first, then a sample of the others. Calls follow the shape of the dose curve; as a rule, active = well fitted inhibition curve with a large enough effect; inconclusive = small, poorly fitted or top-dose-only effect; inactive = flat fitted curve, though single readings scatter. Potencies of inconclusive entries are doubtful fits and often do not repeat.
Potency is read from the fitted curve at half-maximal effect; tags tell the direction and shape of the fitted curve.

Assay: qHTS for Inhibitors of human tyrosyl-DNA phosphodiesterase 1 (TDP1): qHTS in cells in presence of CPT; also: nearly all actives have a fitted effect of over 55% in size
Details: chicken DT40 Tdp1-/-;hTDP1 cells + 20 nM CPT, ATP luminescence, 48 h; series mostly up to 46.2 µM
How it was run: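 Chicken DT40 Tdp1-/- cells complemented with human TDP1, 400 cells/well, exposed to compounds plus 20 nM camptothecin for at least 48 h at 37 C; viability read as ATP content by CellTiter-Glo luminescence.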
For `Cc1cccc(N2CCN(S(=O)(=O)c3ccc(-c4coc(C)n4)cc3)CC2C)c1` (centres undefined), the Potency was inconclusive: 29.1 µM [inhibitor, single point]. In the case of `COCCCn1c(=O)c2sccc2n2c(CCCC(=O)Nc3cc(C)cc(C)c3)nnc12`, the Potency is reported as inconclusive: 20.6 µM [inhibitor, single point]. With `Cc1ccc(-c2noc(CN(C(=O)c3ccc4c(c3)OCO4)C(C)C)n2)cc1` the Potency was inconclusive: 29.1 µM [inhibitor, single point]. For `CCOc1ccc(CCNC(=O)COC(=O)COc2ccccc2C)cc1OCC`, the Potency was “inactive”. In the case of `Cc1ccc(NC(=O)C(Cc2ccccc2)n2cccc2)cc1` (centres undefined), the Potency is reported as inconclusive: 18.4 µM [inhibitor, single point] and inconclusive: 25.9 µM [inhibitor, partial curve]. With `O=C(O)CCC(=O)OCC1CCCO1` (centres undefined) the Potency was “inactive”. With `Cc1ccc(C)c(S(=O)(=O)c2cn(C)c3cc(N4CCCCC4C)c(F)cc3c2=O)c1` (centres undefined) the Potency was active: 20.6 µM. For `COc1ccc(C=NNC(=O)NN=Cc2ccc(OC)c(OC)c2)cc1OC`, the Potency was inconclusive: 18.4 µM [inhibitor, single point]. In the case of `CCOc1cc2c(cc1OCC)C(c1ccc(OC)cc1)N(c1ccccc1)C(=O)C2` (centres undefined), the Potency is reported as “inactive”. In the case of `COc1ccc2[nH]c(=O)c(CN(Cc3cccs3)S(=O)(=O)c3c(C)ccc4nsnc34)cc2c1`, the Potency is reported as active: 4.11 µM. In the case of `CN1CCc2c(sc3c2C(=O)NC(c2ccc(OC(=O)c4ccccc4)cc2)N3)C1` (centres undefined), the Potency is reported as inconclusive: 29.1 µM [inhibitor, single point]. In the case of `CCC(=O)c1ccc(O)c(CC=C(C)C)c1`, the Potency is reported as inconclusive: 23.1 µM [inhibitor, single point]. For `CN(C)S(=O)(=O)N1CCC(Oc2ccc(C(=O)N3C[C@H]4CC[C@H]3C4)cc2)CC1`, the Potency was active: 11.6 µM. With `COCCOC(=O)c1c(NC(=O)CSc2cccc[n+]2[O-])sc(C(N)=O)c1C` the Potency was inconclusive: 29.1 µM [inhibitor, single point]. With `CCOC(=O)c1cc(-c2c(Cl)cccc2Cl)no1` the Potency was “inactive”. With `CN1CCN(S(=O)(=O)c2ccc(N(C)Cc3c(F)cccc3Cl)nc2)CC1` the Potency was inconclusive: 18.4 µM [inhibitor, single point]. For `Cc1cc(NCc2ccccn2)n2ncc(-c3ccccc3)c2n1`, the Potency was active: 0.164 µM. For `CC(C)(Oc1ccc(CCNC(=O)c2ccc(Cl)cc2)cc1)C(=O)O`, the Potency was “inactive”. In the case of `COc1ccc(CNC(=O)Cn2ncc3c4ccccc4n(Cc4cccc(Cl)c4)c3c2=O)cc1`, the Potency is reported as inconclusive: 14.6 µM [inhibitor, partial curve]. In the case of `COc1ccc(-c2cnc(NCc3cc4c(cc3[N+](=O)[O-])OCO4)n2C)cc1`, the Potency is reported as active: 25.9 µM. For `c1ccc(-c2cn3c(n2)-c2ccccc2C3)cc1`, the Potency was inconclusive: 11.6 µM [inhibitor, partial curve]. With `COc1ccc(-c2nnc(SCC(=O)Nc3ccccc3OC)o2)cc1` the Potency was inconclusive: 0.231 µM [inhibitor, full curve, poor fit]. With `CC(C)CC(COCc1cccc(Cl)c1)N1CCN(C(=O)c2cccc(C(F)(F)F)c2)CCC1=O` (centres undefined) the Potency was inconclusive: 29.1 µM [inhibitor, single point]. For `c1ccc(CC2=NCCN2)cc1`, the Potency was “inactive”. For `CCOC(=O)CN(C(=O)CNC(=O)c1cccs1)C(C(=O)NC1CCCC1)c1ccncc1` (centres undefined), the Potency was “inactive”. With `Cc1cc(C)nc(NC(=S)Nc2ccccc2)n1` the Potency was “inactive”. With `CC1CCC(NC(=O)CCS(=O)(=O)c2ccc3c(c2)CC(C)N3C(=O)C2CC2)CC1` (centres undefined) the Potency was inconclusive: 20.6 µM [inhibitor, single point]. With `CCCCCOC(=O)C1=C(C)NC(=O)NC1c1ccccc1` (centres undefined) the Potency was inconclusive: 9.2 µM [inhibitor, partial curve]. In the case of `COc1ccc(C)cc1NC(=O)c1ccc2c(=O)n3c(nc2c1)CCCCC3`, the Potency is reported as active: 14.6 µM. In the case of `CC(=O)OC1CC2C(C)(C)C(O)CC[C@@]2(C)C2CC[C@@]3(C)C(c4ccoc4)OC(=O)C4OC43[C@]12C` (some centres undefined), the Potency is reported as inconclusive: 29.1 µM [inhibitor, single point]. With `Cc1csc(NC(=O)c2cc(C)oc2C)n1` the Potency was “inactive”. For `CN(CCN1CCOCC1)C(=O)c1cc(COc2ccc(F)cc2Cl)on1`, the Potency was “inactive”. With `Cc1ccc(C(=O)Nc2ccc(N3CCOCC3)cc2N2CCOCC2)cc1` the Potency was inconclusive: 29.1 µM [inhibitor, single point]. With `O=C(Cc1ccc([N+](=O)[O-])cc1)Nc1cccc(C(=O)N2CCCCC2)c1` the Potency was inconclusive: 29.1 µM [inhibitor, single point]. With `CS(=O)(=O)Nc1nc2n(n1)C(c1ccccc1)CC(c1ccccc1)N2` (centres undefined) the Potency was “inactive”. With `Cn1c(=O)c2c(-c3ccc(Cl)cc3)n(Cc3ccc(Cl)cc3)cc2n(C)c1=O` the Potency was inconclusive: 29.1 µM [inhibitor, single point]. With `CCn1cc(C(=O)OCC(=O)OC2CC(C)CCC2C(C)C)c(=O)c2ccc(C)nc21` (centres undefined) the Potency was active: 18.4 µM. With `COc1cccc(C(=O)NC2CC3CCCC(C2)N3Cc2ccc(F)cc2)c1` (centres undefined) the Potency was “inactive”. For `COc1ccc(NC2CS(=O)(=O)CC2OC(=O)c2ccc(F)cc2)cc1` (centres undefined), the Potency was inconclusive: 2.31 µM [inhibitor, full curve, poor fit]. For `COc1ccc(F)cc1-c1cc(C(=O)NCc2ccc(C(F)(F)F)cc2)[nH]n1`, the Potency was active: 23.1 µM. For `CCOC(=O)CSc1nc(-c2ccccc2)nc2c1oc1ccccc12`, the Potency was inconclusive: 23.1 µM [inhibitor, partial curve, poor fit]. In the case of `Cc1ccc(CNC(=O)NCc2noc3ccc(C)cc23)cc1`, the Potency is reported as inconclusive: 23.1 µM [inhibitor, single point]. For `COc1ccc(C(=O)NCCn2cc(SCC(=O)Nc3ccc(C)cc3)c3ccccc32)cc1`, the Potency was inconclusive: 29.1 µM [inhibitor, single point]. In the case of `Nc1nc(SCc2ccccc2)c2[nH]cnc2n1`, the Potency is reported as “inactive”. With `CC(=O)Nc1nc(-c2ccc3c(c2)CC(C)N3C(=O)C2CC2)c(C)s1` (centres undefined) the Potency was active: 1.16 µM. In the case of `CCC/C(O)=C1\C(=O)CCCC1=NCCc1c(C)[nH]c2ccccc12`, the Potency is reported as “inactive”. In the case of `Cc1ccc(COCCN2CCN(S(=O)(=O)c3ccc(C)cc3)CCC2=O)cc1`, the Potency is reported as inconclusive: 29.1 µM [inhibitor, single point]. In the case of `CCn1c2ccccc2c2cc(NC(=O)COc3ccc(C)cc3C)ccc21`, the Potency is reported as inconclusive: 29.1 µM [inhibitor, single point]. With `COc1ccc(OCC(=O)Nc2ccccc2C(=O)Nc2ccc(C(=O)O)cc2)cc1` the Potency was “inactive”. With `COc1ccc(-c2c(C)c3ccc(O)c(CN4CCOCC4)c3oc2=O)cc1` the Potency was active: 16.4 µM. With `Cc1ccc(OCC(=O)NNC(=O)CSc2ncnc3sc(C)c(C)c23)cc1` the Potency was inconclusive: 23.1 µM [inhibitor, single point]. With `CCC12CN(C(=O)c3ccc(C)cc3)CC(CC)(CN(C(=O)c3ccc(C)cc3)C1)C2=O` the Potency was “inactive”. In the case of `Cc1ccc(NC(=S)/N=C(\N)Nc2nc(C)c3cc(C)ccc3n2)c(C)c1`, the Potency is reported as active: 20.6 µM. In the case of `O=C(NCc1ccco1)[C@@H]1CSC2c3ccccc3C(=O)N21` (some centres undefined), the Potency is reported as inconclusive: 25.9 µM [inhibitor, single point]. In the case of `COc1ccc(C2=Nc3ccccc3NC(=O)C2N(CCc2cc(OC)cc(OC)c2)C(C)=O)cc1` (centres undefined), the Potency is reported as active: 23.1 µM. In the case of `COC(=O)c1cc2sc(Cl)cc2n1Cc1c(C)cc(C)cc1C`, the Potency is reported as “inactive”. With `CN(C)/C=N/c1c(C#N)cnn1-c1ccc(C(F)(F)F)cn1` the Potency was “inactive”. For `CS(=O)(=O)O/N=C1\CCCCC1c1ccc([N+](=O)[O-])cc1[N+](=O)[O-]` (centres undefined), the Potency was “inactive”. For `CCCCNC(=O)CSc1nnc(-c2c[nH]c3ccccc23)n1CC1CCCO1` (centres undefined), the Potency was inconclusive: 16.4 µM [inhibitor, single point]. For `COc1cc(=O)n2c(c1C(=O)N(C)Cc1nccs1)CCN(Cc1ccc(Cl)cc1)CC2`, the Potency was inconclusive: 20.6 µM [inhibitor, single point]. With `COc1ccc(-c2cc(C)no2)cc1S(=O)(=O)Nc1c(C)cc(C)cc1C` the Potency was inconclusive: 18.4 µM [inhibitor, single point]. With `CCOc1ccc(OCC)c(NS(=O)(=O)c2cc(-c3cnc(C)o3)ccc2OC)c1` the Potency was “inactive”. In the case of `CC(C)OC(=O)C1OC1(C)c1ccccc1` (centres undefined), the Potency is reported as “inactive”. In the case of `Cc1ccc(/C=C2\CCC(C3CCCC3)C2=O)cc1` (centres undefined), the Potency is reported as “inactive”. For `CCOC(=O)C1=C(COC(=O)C2CC(=O)N(c3ccc(CC)cc3)C2)NC(=O)NC1C` (centres undefined), the Potency was “inactive”. For `Cc1ccc(Cn2c(CNS(=O)(=O)c3cccc([N+](=O)[O-])c3)nc3cccnc32)cc1`, the Potency was inconclusive: 18.4 µM [inhibitor, single point]. In the case of `CC(C)(C)Nc1c2ccccc2nc2ccccc12`, the Potency is reported as active: 20.6 µM. For `COC(=O)[C@@]12C[C@@H](CC(=O)N3CCN(C(=O)c4ccco4)CC3)C(=O)N(Cc3cccc4ccccc34)C1=CCC(C)(C)C2`, the Potency was inconclusive: 23.1 µM [inhibitor, single point]. In the case of `C[C@H](CO)N1C[C@H](C)[C@H](CN(C)C(=O)Nc2cccc3ccccc23)OCc2cnnn2CCCC1=O`, the Potency is reported as “inactive”. For `COc1cc(OC)cc(C(=O)NCCCN2CCN(CCCNC(=O)c3cc(OC)cc(OC)c3)CC2)c1`, the Potency was “inactive”. For `COC(=O)CNC(=O)COC(=O)c1cc(F)c(F)cc1Cl`, the Potency was “inactive”. With `CCCCNC(=O)C1CCN(S(=O)(=O)CCC)CC1` the Potency was “inactive”. In the case of `NS(=O)(=O)c1cccc(NC(=O)COc2ccc([N+](=O)[O-])cc2)c1`, the Potency is reported as inconclusive: 13 µM [inhibitor, single point]. In the case of `O=C(COC(=O)c1cccc(S(=O)(=O)N2CCOCC2)c1)Nc1nc(-c2ccccc2Cl)cs1`, the Potency is reported as inconclusive: 20.6 µM [inhibitor, single point].
